Laboratory results from the supplement of paper PMC10126150.
Sequences with one replicate were seen in a single cluster, so their values are uncertain.

Tested on: ATP
Assay: switch fluorescence ratio, 500 uM ATP over buffer (Cy3 cluster intensity, sum of 5 cycles each) (fold (ratio)); higher = stronger signal-on switching upon ATP binding; sequences stand for … in TCGTCGGCAGCGTCAGATGTGTATAAGAGACAGTTTTTTTTTTTTTTTTTTTTTTTTT…TC
Conditions: aptamer strand: ATP DNA aptamer (quencher-CACCTGGGGGAGTATTGCGGAGGAAGG + anchor), 100 nM annealed; ATP concentration: 500 uM; one replicate
Procedure, shortened: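 Five buffer/ATP imaging cycles were run on Cy3-labelled switching-strand clusters on a modified Illumina MiSeq flow-cell, with NaOH stripping and re-annealing between cycles. In each cycle, clusters annealed to 100 nM quencher-labelled ATP aptamer were imaged in selection buffer, then after 15 min with 500 uM ATP at 22 °C. Per cluster, the fluorescence ratio is summed target-cycle over summed buffer-cycle Cy3 intensity, averaged per switch-domain sequence. Only clusters within 100-1000 RFU were kept.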
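Further: ATP exposure 15 min at 22 °C before imaging.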

Q: Which switch fluorescence ratio does the source give for TCCTTTCGGG here?
A: 1.05

Q: With TCCTTTTGAG as the sequence, how does the switch fluorescence ratio read?
A: 1.02

Q: For TCGAAACGGT, which switch fluorescence ratio is on record?
A: 0.967

Q: TCGAAAGGGC was tested. Which switch fluorescence ratio did it give?
A: 1

Q: TCGAAATAGC was tested. Which switch fluorescence ratio did it give?
A: 1.22

Q: For TCGAACCTCT, which switch fluorescence ratio is on record?
A: 1.01

Q: How did the switch fluorescence ratio turn out when TCGAACGGGA was run?
A: 1.35

Q: With TCGAAGACTA as the sequence, how does the switch fluorescence ratio read?
A: 0.99

Q: TCGAAGATGA was tested. Which switch fluorescence ratio did it give?
A: 1

Q: With TCGAAGCAAC as the sequence, how does the switch fluorescence ratio read?
A: 4.48

Q: How did the switch fluorescence ratio turn out when TCGACATTTT was run?
A: 1.02

Q: Which switch fluorescence ratio does the source give for TCGACCGTAC here?
A: 2.28

Q: For TCGACTCATG, which switch fluorescence ratio is on record?
A: 0.977

Q: For TCGACTGTTG, which switch fluorescence ratio is on record?
A: 1.01

Q: Which switch fluorescence ratio does the source give for TCGACTTTGA here?
A: 0.978

Q: Which switch fluorescence ratio does the source give for TCGAGCAGAG here?
A: 1.29

Q: How did the switch fluorescence ratio turn out when TCGAGCCTGT was run?
A: 1

Q: With TCGAGCGTCG as the sequence, how does the switch fluorescence ratio read?
A: 0.944

Q: TCGAGGCAAG was tested. Which switch fluorescence ratio did it give?
A: 3.76

Q: Which switch fluorescence ratio does the source give for TCGATACTA here?
A: 1.01

Q: Which switch fluorescence ratio does the source give for TCGATGCGAG here?
A: 1.03

Q: TCGATTGAGC was tested. Which switch fluorescence ratio did it give?
A: 0.99

Q: How did the switch fluorescence ratio turn out when TCGATTGCGC was run?
A: 0.995

Q: TCGCAAAAGG was tested. Which switch fluorescence ratio did it give?
A: 1.24

Q: TCGCAAAGCG was tested. Which switch fluorescence ratio did it give?
A: 1.01

Q: With TCGCACTGAT as the sequence, how does the switch fluorescence ratio read?
A: 1.07

Q: For TCGCACTTCG, which switch fluorescence ratio is on record?
A: 1.05

Q: How did the switch fluorescence ratio turn out when TCGCAGAAGT was run?
A: 0.951

Q: TCGCAGCTCT was tested. Which switch fluorescence ratio did it give?
A: 1.37

Q: How did the switch fluorescence ratio turn out when TCGCAGGCTG was run?
A: 0.934

Q: Which switch fluorescence ratio does the source give for TCGCATACCT here?
A: 2.49

Q: TCGCATGTAA was tested. Which switch fluorescence ratio did it give?
A: 1.11

Q: For TCGCATTTAG, which switch fluorescence ratio is on record?
A: 1.6

Q: With TCGCCAATTT as the sequence, how does the switch fluorescence ratio read?
A: 2.2

Q: TCGCCAGGGT was tested. Which switch fluorescence ratio did it give?
A: 1.06

Q: TCGCCCCGAC was tested. Which switch fluorescence ratio did it give?
A: 1.31

Q: How did the switch fluorescence ratio turn out when TCGCCCTTGT was run?
A: 1.02

Q: Which switch fluorescence ratio does the source give for TCGCCGAGGG here?
A: 0.986

Q: TCGCCTATGG was tested. Which switch fluorescence ratio did it give?
A: 1.02

Q: How did the switch fluorescence ratio turn out when TCGCCTGAGT was run?
A: 1.02

Q: How did the switch fluorescence ratio turn out when TCGCGACGGT was run?
A: 1.03

Q: For TCGCGGGGAC, which switch fluorescence ratio is on record?
A: 1.27

Q: With TCGCGTCCTG as the sequence, how does the switch fluorescence ratio read?
A: 0.974

Q: TCGCGTGCTT was tested. Which switch fluorescence ratio did it give?
A: 0.947

Q: How did the switch fluorescence ratio turn out when TCGCTACT was run?
A: 1.81

Q: With TCGCTAGAGT as the sequence, how does the switch fluorescence ratio read?
A: 0.967

Q: TCGCTATAAG was tested. Which switch fluorescence ratio did it give?
A: 1.08

Q: How did the switch fluorescence ratio turn out when TCGCTCTCGT was run?
A: 1.05

Q: How did the switch fluorescence ratio turn out when TCGCTCTTAC was run?
A: 3.14

Q: With TCGCTCTTTG as the sequence, how does the switch fluorescence ratio read?
A: 0.99

Q: Which switch fluorescence ratio does the source give for TCGCTGATTC here?
A: 1.35

Q: How did the switch fluorescence ratio turn out when TCGCTGCAAG was run?
A: 1

Q: With TCGCTGGCAT as the sequence, how does the switch fluorescence ratio read?
A: 0.976

Q: Which switch fluorescence ratio does the source give for TCGCTGTACT here?
A: 2.42

Q: TCGCTTCTTG was tested. Which switch fluorescence ratio did it give?
A: 0.984

Q: For TCGGACAAAT, which switch fluorescence ratio is on record?
A: 1.04

Q: With TCGGACACTC as the sequence, how does the switch fluorescence ratio read?
A: 1.09

Q: With TCGGACCGCG as the sequence, how does the switch fluorescence ratio read?
A: 1.01

Q: How did the switch fluorescence ratio turn out when TCGGACGGTA was run?
A: 1.24

Q: Which switch fluorescence ratio does the source give for TCGGAGTGCC here?
A: 0.951

Q: With TCGGATCTAG as the sequence, how does the switch fluorescence ratio read?
A: 1.01

Q: For TCGGCACTGA, which switch fluorescence ratio is on record?
A: 1.04

Q: For TCGGCAGCGC, which switch fluorescence ratio is on record?
A: 0.971

Q: For TCGGCGACGA, which switch fluorescence ratio is on record?
A: 0.971

Q: How did the switch fluorescence ratio turn out when TCGGCGTCC was run?
A: 0.948

Q: How did the switch fluorescence ratio turn out when TCGGCGTCG was run?
A: 1.03

Q: How did the switch fluorescence ratio turn out when TCGGCTGAGA was run?
A: 0.985

Q: How did the switch fluorescence ratio turn out when TCGGGACGGC was run?
A: 1.06

Q: With TCGGGACTTT as the sequence, how does the switch fluorescence ratio read?
A: 0.995

Q: With TCGGGATCAA as the sequence, how does the switch fluorescence ratio read?
A: 0.998

Q: Which switch fluorescence ratio does the source give for TCGGGCAGCT here?
A: 0.979

Q: Which switch fluorescence ratio does the source give for TCGGGCCCAT here?
A: 1.38

Q: With TCGGGCGCGG as the sequence, how does the switch fluorescence ratio read?
A: 1.01

Q: How did the switch fluorescence ratio turn out when TCGGGCTCCG was run?
A: 1.05

Q: Which switch fluorescence ratio does the source give for TCGGGGACGA here?
A: 1.03

Q: TCGGGGAGCT was tested. Which switch fluorescence ratio did it give?
A: 0.955

Q: Which switch fluorescence ratio does the source give for TCGGGGGA here?
A: 0.947

Q: For TCGGGGGACG, which switch fluorescence ratio is on record?
A: 1.03

Q: For TCGGGTACGG, which switch fluorescence ratio is on record?
A: 1.01

Q: With TCGGGTTATT as the sequence, how does the switch fluorescence ratio read?
A: 0.974

Q: TCGGTACCC was tested. Which switch fluorescence ratio did it give?
A: 1.03

Q: For TCGGTACCGA, which switch fluorescence ratio is on record?
A: 1

Q: How did the switch fluorescence ratio turn out when TCGGTACTGG was run?
A: 0.953

Q: With TCGGTAGCGT as the sequence, how does the switch fluorescence ratio read?
A: 1.12

Q: TCGGTAGCTG was tested. Which switch fluorescence ratio did it give?
A: 1.11

Q: With TCGGTCATGT as the sequence, how does the switch fluorescence ratio read?
A: 0.99

Q: For TCGGTCGCGT, which switch fluorescence ratio is on record?
A: 0.989

Q: Which switch fluorescence ratio does the source give for TCGGTCTCT here?
A: 1.04

Q: How did the switch fluorescence ratio turn out when TCGGTCTTT was run?
A: 0.994

Q: With TCGGTGATCA as the sequence, how does the switch fluorescence ratio read?
A: 1.04

Q: For TCGGTGGAG, which switch fluorescence ratio is on record?
A: 1.06

Q: For TCGGTTACCT, which switch fluorescence ratio is on record?
A: 1.14

Q: With TCGGTTTACT as the sequence, how does the switch fluorescence ratio read?
A: 1.04

Q: TCGGTTTTTG was tested. Which switch fluorescence ratio did it give?
A: 0.917

Q: How did the switch fluorescence ratio turn out when TCGT was run?
A: 1.03

Q: For TCGTAAATCG, which switch fluorescence ratio is on record?
A: 1.08

Q: TCGTAACTAG was tested. Which switch fluorescence ratio did it give?
A: 1.01

Q: With TCGTACGGAT as the sequence, how does the switch fluorescence ratio read?
A: 1.03

Q: Which switch fluorescence ratio does the source give for TCGTACTCTG here?
A: 0.97

Q: With TCGTACTGTA as the sequence, how does the switch fluorescence ratio read?
A: 1.08

Q: With TCGTAGCGAG as the sequence, how does the switch fluorescence ratio read?
A: 1.18

Q: With TCGTAGGAGT as the sequence, how does the switch fluorescence ratio read?
A: 1.07

Q: With TCGTAGTTCT as the sequence, how does the switch fluorescence ratio read?
A: 0.946

Q: With TCGTCATTTT as the sequence, how does the switch fluorescence ratio read?
A: 1.15

Q: For TCGTCTGGTG, which switch fluorescence ratio is on record?
A: 1.03

Q: For TCGTGATGTC, which switch fluorescence ratio is on record?
A: 0.978

Q: With TCGTGCTCGT as the sequence, how does the switch fluorescence ratio read?
A: 0.975

Q: With TCGTGCTTGT as the sequence, how does the switch fluorescence ratio read?
A: 0.995

Q: With TCGTGGACA as the sequence, how does the switch fluorescence ratio read?
A: 1.02

Q: For TCGTGGATGC, which switch fluorescence ratio is on record?
A: 1.03

Q: For TCGTGGTAAA, which switch fluorescence ratio is on record?
A: 1.03

Q: TCGTGGTTTT was tested. Which switch fluorescence ratio did it give?
A: 0.974

Q: TCGTGTAACC was tested. Which switch fluorescence ratio did it give?
A: 1.02

Q: Which switch fluorescence ratio does the source give for TCGTGTATGG here?
A: 0.967

Q: TCGTGTCTGC was tested. Which switch fluorescence ratio did it give?
A: 1.03

Q: With TCGTGTGGAA as the sequence, how does the switch fluorescence ratio read?
A: 1.02

Q: With TCGTGTGTCT as the sequence, how does the switch fluorescence ratio read?
A: 1

Q: For TCGTGTTCC, which switch fluorescence ratio is on record?
A: 1.08

Q: Which switch fluorescence ratio does the source give for TCGTTAAATG here?
A: 0.987

Q: How did the switch fluorescence ratio turn out when TCGTTACAAA was run?
A: 1.02

Q: Which switch fluorescence ratio does the source give for TCGTTATTAC here?
A: 1.37

Q: How did the switch fluorescence ratio turn out when TCGTTCCCAA was run?
A: 1.03

Q: For TCGTTCTGAT, which switch fluorescence ratio is on record?
A: 0.942

Q: With TCGTTGTATG as the sequence, how does the switch fluorescence ratio read?
A: 0.996

Q: For TCGTTGTTGA, which switch fluorescence ratio is on record?
A: 0.983

Q: How did the switch fluorescence ratio turn out when TCGTTTATGA was run?
A: 0.981

Q: How did the switch fluorescence ratio turn out when TCGTTTTGGT was run?
A: 1.02

Q: TCGTTTTTT was tested. Which switch fluorescence ratio did it give?
A: 1

Q: TCTAAAATTC was tested. Which switch fluorescence ratio did it give?
A: 1.05

Q: For TCTAAACCGA, which switch fluorescence ratio is on record?
A: 1.19

Q: How did the switch fluorescence ratio turn out when TCTAACGGAG was run?
A: 1.05

Q: Which switch fluorescence ratio does the source give for TCTAAGATCA here?
A: 1.05

Q: TCTAAGGATC was tested. Which switch fluorescence ratio did it give?
A: 1.05

Q: For TCTAAGGCGT, which switch fluorescence ratio is on record?
A: 1.02

Q: How did the switch fluorescence ratio turn out when TCTAATAACA was run?
A: 0.99

Q: TCTACCGCTT was tested. Which switch fluorescence ratio did it give?
A: 2.53

Q: How did the switch fluorescence ratio turn out when TCTACTATAA was run?
A: 1.03

Q: How did the switch fluorescence ratio turn out when TCTAGACGAG was run?
A: 0.984

Q: How did the switch fluorescence ratio turn out when TCTAGAGCCT was run?
A: 1.07

Q: TCTAGCAGCT was tested. Which switch fluorescence ratio did it give?
A: 1.03

Q: With TCTAGGCGCC as the sequence, how does the switch fluorescence ratio read?
A: 1.01

Q: Which switch fluorescence ratio does the source give for TCTAGGGCAT here?
A: 1.1

Q: How did the switch fluorescence ratio turn out when TCTAGGGCG was run?
A: 1.02

Q: TCTAGGTTTG was tested. Which switch fluorescence ratio did it give?
A: 0.968

Q: For TCTAGTTG, which switch fluorescence ratio is on record?
A: 0.995

Q: With TCTATAAGT as the sequence, how does the switch fluorescence ratio read?
A: 1.03

Q: Which switch fluorescence ratio does the source give for TCTATATAGC here?
A: 1.03

Q: Which switch fluorescence ratio does the source give for TCTATGACCT here?
A: 1.2

Q: How did the switch fluorescence ratio turn out when TCTATGGGGC was run?
A: 0.989

Q: How did the switch fluorescence ratio turn out when TCTCAAGTGT was run?
A: 0.992

Q: Which switch fluorescence ratio does the source give for TCTCACCAAA here?
A: 1.05

Q: For TCTCACGTTC, which switch fluorescence ratio is on record?
A: 1.06

Q: Which switch fluorescence ratio does the source give for TCTCACTGTG here?
A: 1.04

Q: How did the switch fluorescence ratio turn out when TCTCAGACCA was run?
A: 0.981
